# Reference: paper PMC4336329 (PLoS ONE, 2015)
# Among all 310,000 compounds or so, about 2,200 (0.71%) showed an effect of 50% or more. Effects have a minus sign here. Some of the results follow.
# Molecular target: human ether-à-go-go-related gene (hERG) potassium channel (human, UniProt Q12809)
# Assay: primary screen, population patch clamp on CHO cells stably expressing hERG
# Sequence of human ether-à-go-go-related gene (hERG) potassium channel (Q12809 whole entry, looked up): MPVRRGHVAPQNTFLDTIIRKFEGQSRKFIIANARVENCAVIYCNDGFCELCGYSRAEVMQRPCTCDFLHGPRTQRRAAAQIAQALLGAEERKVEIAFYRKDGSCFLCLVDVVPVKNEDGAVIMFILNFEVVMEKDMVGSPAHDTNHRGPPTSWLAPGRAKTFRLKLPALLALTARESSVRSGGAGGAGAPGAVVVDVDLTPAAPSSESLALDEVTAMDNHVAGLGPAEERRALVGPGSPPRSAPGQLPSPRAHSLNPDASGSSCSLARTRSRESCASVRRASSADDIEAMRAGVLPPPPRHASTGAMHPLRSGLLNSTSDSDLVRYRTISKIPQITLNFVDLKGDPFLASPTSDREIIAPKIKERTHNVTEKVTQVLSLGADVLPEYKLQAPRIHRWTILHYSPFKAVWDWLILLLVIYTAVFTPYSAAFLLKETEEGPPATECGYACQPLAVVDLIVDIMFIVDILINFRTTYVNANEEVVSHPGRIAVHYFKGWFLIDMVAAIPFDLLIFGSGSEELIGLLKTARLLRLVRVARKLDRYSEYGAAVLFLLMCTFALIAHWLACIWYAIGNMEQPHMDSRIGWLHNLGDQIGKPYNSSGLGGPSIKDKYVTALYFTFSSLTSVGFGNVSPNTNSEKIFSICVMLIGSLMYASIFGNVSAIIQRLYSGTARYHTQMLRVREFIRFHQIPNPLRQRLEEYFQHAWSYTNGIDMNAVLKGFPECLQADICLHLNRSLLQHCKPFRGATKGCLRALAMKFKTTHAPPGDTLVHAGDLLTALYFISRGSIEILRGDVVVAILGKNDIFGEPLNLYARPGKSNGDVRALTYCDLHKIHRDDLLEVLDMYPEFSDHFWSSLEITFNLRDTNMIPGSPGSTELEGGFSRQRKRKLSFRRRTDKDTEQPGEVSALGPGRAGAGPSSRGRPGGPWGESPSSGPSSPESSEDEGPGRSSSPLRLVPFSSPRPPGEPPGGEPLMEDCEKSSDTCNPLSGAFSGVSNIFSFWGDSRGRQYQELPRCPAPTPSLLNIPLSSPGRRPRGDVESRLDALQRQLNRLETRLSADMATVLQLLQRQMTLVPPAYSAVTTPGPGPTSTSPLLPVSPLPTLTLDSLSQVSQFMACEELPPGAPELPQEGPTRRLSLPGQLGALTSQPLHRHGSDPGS
row,Structure (SMILES),"hERG current change (%, negative = inhibition) at 1uM [%]"
1,CSc1ccc(C(=O)NC2CCSc3ccccc32)cc1 (centres unmarked),13.7
2,Cc1cccc(C(=O)c2cn[nH]c2-c2ccc(C)cc2O)c1,19.4
3,COCC(C)NC(=O)C1CC(c2cccc(Br)c2)=NO1 (centres unmarked),14.7
4,Cc1cccc(Oc2coc3cc(OC(=O)c4cccs4)ccc3c2=O)c1,2.01
5,Cc1noc(NC(=O)c2c(-c3c(Cl)cccc3Cl)noc2C)c1[N+](=O)[O-],9.64
6,CS(=O)(=O)N1CCN(c2ccnc3cc(Cl)ccc23)CC1,-81.3
7,Cc1ccc(NC(=O)CN(C)C2CCCCC2)cc1Cl.O=C(O)C(=O)O,11.2
8,COc1ccc(CCNC(=O)C(=O)NCc2ccc(C(C)C)cc2)cc1OC,12.5
9,Cc1ccc(C(=O)/C=C/Nc2ccc([N+](=O)[O-])cc2Br)cc1,7
10,COc1ccc(C2CC(=O)OC3=C2C(=O)CC(C)(C)C3)c(OC)c1 (centres unmarked),-2.47
11,O=C(NC(=S)N1CCN(c2nc(-c3ccccc3)cs2)CC1)c1cncc(Br)c1,34.7
12,O=C(CCSCCc1ccccn1)Nc1ccccn1,16.1
13,O=C(O)/C=C/c1cnc[nH]1,17
14,O=C(O)CC(NNC(=O)c1ccccc1)C(=O)Nc1ccc([N+](=O)[O-])cc1 (centres unmarked),-2.38
15,O=C(Cn1c(-c2ccccn2)nc2ccccc21)N/N=C/c1ccccn1,2.58
16,COCCCn1c(C(=O)N2CC(C)OC(C)C2)cc2c(=O)n3cccc(C)c3nc21 (centres unmarked),12.8
17,O=c1[nH]c(=O)n(Cc2ccc(F)cc2)c(O)c1C=NCCCO,10.7
18,CCc1nnc(NS(=O)(=O)c2ccc(NC(=O)/C=C/C(=O)O)cc2)s1,17
19,COCCn1cnc2c1c(=O)n(CC(=O)OCC(=O)NCCCc1ccccc1)c(=O)n2Cc1ccccc1,1.97
20,Cc1cc(C)c(C(=O)CN2C(=O)NC3(CCC(C)CC3)C2=O)cc1C (centres unmarked),9.13
21,CC(C)(C)C(=O)NCc1ccc(C(=O)CSc2nnc(C3CC3)n2C2CC2)s1,11.9
22,Cc1ccc(C(=O)NCC(=O)NCC(=O)OCc2ccc(Oc3ccc([N+](=O)[O-])cc3)cc2)cc1,6.47
23,Cc1ccc(/C=C/C(=O)N2CCN(c3ccc(F)cc3)CC2)o1,12

row,Structure (SMILES),"hERG current change (%, negative = inhibition) at 1uM [%]"
1,CC(NC(=O)CN(C)Cc1cccs1)c1ccccc1 (centres unmarked),13.6
2,COc1ccc(-c2ccc(SCC(=O)N3CCN(c4ccccc4)CC3)nn2)cc1,6.99
3,CSc1nc(C)cc(Oc2ccccc2)n1,1.37
4,CCC(C)[C@H](NC(=O)C1CC(=O)N(c2ccc(OC)cc2)C1)C(=O)NC1CCCC1 (some centres unmarked),9.22
5,CN(C(=O)c1ccccn1)C1(C(=O)NC2CCCCC2)CCCCC1,11.6
6,Cc1cc(NC(=O)C(=O)c2c(C)[nH]c3ccccc23)no1,7.01
7,Clc1ccc(N=c2ssnc2Cl)nc1,8.42
8,CC(Sc1nc(N(C)C)nc(N2CCOCC2)n1)C(=O)Nc1ccccc1 (centres unmarked),14.7
9,Cc1cc(C)n(Cc2ccc(C(=O)O)o2)n1,14.4
10,Cc1ccc(C)c(CN2CCC(CNC(=O)Nc3ccc(Br)cc3F)CC2)c1,1.12
11,COC(=O)c1sccc1NC(=O)CSc1ccccc1NS(=O)(=O)c1cc(Cl)ccc1Cl,18.3
12,CC12CN3CC(C)(CN(C1)C3c1cccs1)C2=O (centres unmarked),7.73
13,COc1cccc(NC(=O)CN(C)C(C)C(=O)Nc2ccc(C(C)=O)cc2)c1 (centres unmarked),2.85
14,O=C(c1ccc(F)cc1)c1cn[nH]c1-c1ccccc1O,8.43
15,COC(=O)c1c(NC(=O)CN2CCN(C(=O)c3ccco3)CC2)c2c(C)cccc2n1C,5.88
16,COc1ccc(C(=O)Nc2cc(C(=O)O)cc(C(=O)O)c2)cc1Cl,6.3
17,O=S(=O)(NCCSc1nnc(-c2ccco2)n1-c1ccccc1)c1ccccc1,3.81
18,O=C1c2ccccc2C(O)N1Cc1cccs1 (centres unmarked),8.16
19,OCC#Cc1cnc2ccccc2c1,1.38
20,Cc1cccc(C)c1NC(=O)CNC(=O)c1ccc2c(c1)OCCO2,11.7
21,CCOc1ccc(OCC)c(NC(=O)CN2CCN(c3cc(C)ccc3C)CC2)c1.Cl,4.54
22,O=C1CC(Sc2ncccn2)C(=O)N1c1ccccc1 (centres unmarked),8.64
23,O=C(O)c1ncc(Cl)c(Cl)c1Cl,8.65

row,Structure (SMILES),"hERG current change (%, negative = inhibition) at 1uM [%]"
1,CC(=O)Nc1ccc(NC(=O)Nc2ccc3c(c2)N(C)C(=O)CS3)cc1,8.86
2,COC(=O)CSc1n[nH]c(-c2ccncc2)n1,16.7
3,Cc1[nH]c2ccc(OC(=O)N3CCOCC3)cc2c1C(=O)OC(C)C,5.49
4,O=C(CSc1nc2ccccc2c(=O)[nH]1)Nc1ccc(Br)cc1,9.82
5,Cc1ccc(OCCOC(=O)CCc2nc3ccccc3c(=O)[nH]2)cc1,14.5
6,COc1ccc(S(=O)(=O)N2CCCCC2)cc1NC(=O)Cc1cccs1,9.97
7,COc1ccccc1C(CNC(=O)c1ccc(S(=O)(=O)N2CCCCC2)cc1)N(C)C (centres unmarked),5.72
8,CCc1ccc(C(=O)COC(=O)C(Cc2ccccc2)NC(=O)C2CCC(C)CC2)cc1 (centres unmarked),4.79
9,COc1ccc(N2CC(C(=O)OCC(=O)Nc3cccc(C)c3)CC2=O)cc1 (centres unmarked),5.54
10,N/C(=N\c1nc2ccccc2o1)NC(=O)c1ccc(F)cc1,-4.74
11,O=C1c2ccc(-c3ccc4c(c3)C(=O)N(CCO)C4=O)cc2C(=O)N1CCO,12.8
12,O=C(C[n+]1cc(-c2ccc(F)cc2)n2c1CCC2)Nc1nc(-c2ccc(F)cc2)cs1.[Cl-],-3.27
13,CCc1noc(C)c1C(=O)Nc1nc2ccc(OC)cc2s1,-0.289
14,O=C(NCC1(N2CCCCC2)CCCCC1)c1ccc(NS(=O)(=O)c2ccc(F)cc2)cc1,-5.49
15,O=C(CC1C(=O)NCCN1Cc1c(F)cccc1Cl)NCCCn1cccn1 (centres unmarked),9.02
16,CCOC(=O)C(C)n1cnc2scc(-c3ccc(C)c(C)c3)c2c1=O (centres unmarked),11
17,CCn1c(CN2CCN(c3cccc(C)c3C)CC2)n[nH]c1=S,8.22
18,COC(=O)CN1C(=O)[C@H]2[C@@H](C3CC3)N3C(=O)CN(Cc4ccc(-c5ccccc5)cc4)C(=O)[C@@]3(Cc3ccccc3)[C@H]2C1=O,15.6
19,CC(OC(=O)CN1C(=O)C2CC=CCC2C1=O)C(=O)Nc1ccc(F)cc1Cl (centres unmarked),2.75
20,Cc1ccc(-n2cc(CN3CCN(Cc4nccn4C)CC3)c(-c3cccc(C)c3)n2)cc1,3.93
21,CN(CC(=O)Nc1cccc(C#N)c1)Cc1ccc(Cl)cc1,-17.9
22,O=C(Cn1nnc2ccccc21)NNC(=O)c1ccccc1,16.4
23,CCOC(=O)c1cc(-c2ccc(F)cc2)n(CC(=O)Nc2nccs2)c1C,4.03

row,Structure (SMILES),"hERG current change (%, negative = inhibition) at 1uM [%]"
1,O=C(NC1CCCCC1)N1CCN(c2ccc([N+](=O)[O-])cc2)CC1,-7.25
2,CC(=O)Nc1ccc(C(=O)NNC(=O)CCCCC(=O)NNC(=O)c2ccc(NC(C)=O)cc2)cc1,4.15
3,O=C(NC1CCCCC1)c1cc(C(=O)c2ccccc2Br)c[nH]1,10.6
4,COc1cccc(OC)c1OCC(C)CNCC1CCCO1.Cl (centres unmarked),7.67
5,Cc1cccc(Oc2ccccc2NS(=O)(=O)c2ccc(CCC(=O)O)cc2)c1,4.01
6,CCOC(=O)C1=C(O)/C(=C/c2ccc(OCC(=O)O)c(OCC)c2)SC1=Nc1ccc(C)cc1,16.6
7,Cl.OCCCNCc1ccc(Cl)cc1Cl,10.5
8,O=CN1CCN(C(=O)c2ccc(-c3nc4ccccc4s3)s2)CC1,3.36
9,CCCN(Cc1cc2cc(OC)ccc2[nH]c1=O)C(=O)c1ccncc1,-1.37
10,O=C(Cc1cccs1)Nc1ccccc1C(=O)O,4.62
11,CNC(C)C#Cc1ccc2c(=O)c3c(OC)cccc3oc2c1 (centres unmarked),11
12,O=C(NCCNS(=O)(=O)c1cccc(C(F)(F)F)c1)c1cc(OCC(F)(F)F)ccc1OCC(F)(F)F,12.2
13,CN1CCN(NC(=O)c2ccc(F)cc2)CC1,17.8
14,Cn1cnnc1SCC(=O)Nc1ccc(S(N)(=O)=O)cc1,17.6
15,Cc1[nH]n(C)c(=O)c1C(=O)c1c(-c2ccccc2Cl)noc1C,12.4
16,COc1ccccc1OCCNC1CCCC1,0.73
17,Cc1cc(C)c(NC(=O)c2ccccc2CCc2ccccc2)c(C)c1,3.92
18,Cc1ccc(S(=O)(=O)NCCCN2CCCC2)cc1,8.21
19,O=C(CCn1nc(-c2ccc(Cl)cc2)c2ccccc2c1=O)NCC1CCCO1 (centres unmarked),-1.18
20,O=C(Cn1cnc2ccccc21)NCCCN1CCOCC1,-9.03
